Measurements taken from PubChem BioAssay AID1476 (National Center for Advancing Translational Sciences (NCATS), 2009).
Several values for one entry are separate records, joined by “and”; a condition that tells them apart may be missing. Equal values may be shown once. Hit rate of the full screen: of about 200,000 compounds, about 4,500 (2.2%) were called active. Inconclusive means that the source gave no clear call. Such entries were picked first, then a sample of the others. Calls follow the shape of the dose curve; as a rule, active = well fitted inhibition curve with a large enough effect; inconclusive = small, poorly fitted or top-dose-only effect, or effect the other way; inactive = flat fitted curve, though single readings scatter. Where the call is inconclusive, the potency comes from a doubtful curve fit.

target: Cruzipain (Trypanosoma cruzi) (UniProt P25779); assay: qHTS Assay for Promiscuous and Specific Inhibitors of Cruzain (without detergent); conditions: purified cruzain, Z-FR-AMC fluorescence, no detergent; also: nearly all actives have a fitted effect of over 40% in size;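 as to max response, negative = inhibition: plate controls were enzyme without inhibitor for no effect and buffer without enzyme for full effect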
Sequence of UniProt P25779 (P25779 whole entry, looked up): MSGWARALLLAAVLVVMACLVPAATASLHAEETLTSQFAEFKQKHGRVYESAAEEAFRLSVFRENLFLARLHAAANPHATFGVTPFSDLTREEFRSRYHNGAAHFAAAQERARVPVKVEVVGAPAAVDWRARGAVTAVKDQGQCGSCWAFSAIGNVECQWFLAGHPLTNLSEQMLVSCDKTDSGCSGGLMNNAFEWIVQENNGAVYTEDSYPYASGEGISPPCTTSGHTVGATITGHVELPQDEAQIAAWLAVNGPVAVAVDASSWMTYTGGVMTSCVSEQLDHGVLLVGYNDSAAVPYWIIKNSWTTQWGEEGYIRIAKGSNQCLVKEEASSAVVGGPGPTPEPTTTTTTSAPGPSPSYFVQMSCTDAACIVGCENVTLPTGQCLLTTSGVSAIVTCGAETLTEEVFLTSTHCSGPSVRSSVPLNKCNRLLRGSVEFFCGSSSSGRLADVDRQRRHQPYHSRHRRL
In short: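 Purified cruzain at 1.5 nM, pre-incubated 15 min with compound at room temperature in 100 mM sodium acetate pH 5.5, 5 mM DTT, 0.00005% Triton X-100. Reaction started with 2 uM Z-FR-AMC; AMC fluorescence increase over 60 s gives rate.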
Potency is read from the fitted curve at half-maximal effect; tags tell the direction and shape of the fitted curve.

With CCCCOC(=O)c1cc2c(cn1)[nH]c1ccccc12 as the molecule, how does the Potency read?
The Potency was inconclusive: 25.1 µM [activator, partial curve].

For Cc1ccc(C(=O)C2(C)C3c4cc(Br)ccc4OC(=O)C32C(=O)c2ccco2)cc1 (centres undefined), which Potency is on record?
The Potency was inconclusive: 31.6 µM [inhibitor, single point].

Cc1cccc(NC(=O)c2cc([N+](=O)[O-])ccc2NC2CCCCC2)c1 was tested. Which Potency did it give?
Its Potency is inconclusive: 3.16 µM [inhibitor, partial curve].

With COc1ccc(C)cc1NCc1cc(=O)oc2cc(-c3ccccc3)c(O)cc12 as the molecule, how does the Potency read?
Its Potency is active: 31.6 µM.

With COc1cccc(NS(=O)(=O)c2ccc3[nH]cc(C(=O)NC4CCCCC4)c(=O)c3c2)c1 as the molecule, how does the max response, negative = inhibition read?
Its max response, negative = inhibition is inactive: -21.4%.

For O=S(=O)(NCc1ccccc1)c1ccc2[nH]c3c(c2c1)CCCCC3, which Potency is on record?
The Potency was inconclusive: 39.8 µM [inhibitor, single point].

Which Potency does the source give for COc1ccc(-c2csc(NC(=O)COC(=O)Cc3ccc(Cl)cc3Cl)n2)cc1 here?
The Potency was inconclusive: 39.8 µM [inhibitor, single point].

CCC(C)[C@@H](N)C(=O)N/N=C/c1ccc2ncccc2c1 (some centres undefined) was tested. Which Potency did it give?
The Potency was active: 10 µM.

How did the Potency turn out when CCn1cc2nc(SCc3cccc(OC)c3)n(Cc3ccc(Cl)cc3)c(=O)c2n1 was run?
The Potency was inconclusive: 39.8 µM [activator, single point].

With COc1ccc(Cl)cc1NC(=O)CN1c2ccccc2S(=O)(=O)c2ccccc21 as the molecule, how does the Potency read?
The Potency was active: 20 µM.

O=C(Nc1ccc2ccccc2c1)/C(=C\c1ccc2c(c1)OCO2)NC(=O)c1ccco1 was tested. Which Potency did it give?
Its Potency is inconclusive: 39.8 µM [inhibitor, single point].

CCOC(=O)c1c(CSC(=N)N)n(-c2ccc(C)cc2)c2cc(Br)c(OC(C)=O)cc12 was tested. Which Potency did it give?
Its Potency is inconclusive: 31.6 µM [inhibitor, single point].

With CN1CCc2nc(SCC(=O)Nc3ccc(OC(F)(F)F)cc3)c(C#N)c(-c3cccs3)c2C1 as the molecule, how does the Potency read?
Its Potency is inconclusive: 39.8 µM [inhibitor, single point].

O=C(C[N+]12CN3CN(CN(C3)C1)C2)c1ccc(-c2ccccc2)cc1 was tested. Which Potency did it give?
The Potency was inconclusive: 3.16 µM [inhibitor, single point].

Which Potency does the source give for Cc1c(NC(=O)c2cc3nc(-c4ccc(Br)cc4)cc(C(F)(F)F)n3n2)c(=O)n(-c2ccccc2)n1C here?
Its Potency is inconclusive: 39.8 µM [activator, single point].

For CCc1cccc(NC(=O)Cn2c(=O)n(CC3CCC(C(=O)NCCc4ccccc4)CC3)c(=O)c3ccccc32)c1 (centres undefined), which max response, negative = inhibition is on record?
The max response, negative = inhibition was inactive: -15.7%.

How did the max response, negative = inhibition turn out when COc1ccc(-c2[nH]ncc2C(=O)NCc2ccc(F)cc2)cc1 was run?
Its max response, negative = inhibition is inactive: -4.81%.

For Cc1ccc(C(=O)N2CCN(c3ccccc3F)CC2)cc1NC(=O)c1nsc2ccccc12, which max response, negative = inhibition is on record?
Its max response, negative = inhibition is inactive: -26.1%.

For O=S(=O)(Nc1ccc2c(c1)OCCO2)c1cccs1, which Potency is on record?
Its Potency is inconclusive: 31.6 µM [inhibitor, single point].

For Cc1ccc(-c2cc(-c3ccc(C)o3)nc(N)c2C#N)cc1, which Potency is on record?
Its Potency is inconclusive: 25.1 µM [activator, partial curve].

CCOc1cc(C(=O)NCc2ccc3c(c2)CCN3C(=O)CC)cc(OCC)c1OCC was tested. Which Potency did it give?
The Potency was inconclusive: 39.8 µM [activator, single point].

How did the max response, negative = inhibition turn out when Cc1ccc(NC(=O)COC(=O)C(CC(C)C)N2C(=O)C3CC=CCC3C2=O)c(C)c1 (centres undefined) was run?
The max response, negative = inhibition was inactive: 8.47%.

How did the Potency turn out when COCC(C)n1c(C)cc(C(=O)COc2ccc(S(=O)(=O)N3CCOCC3)cc2Cl)c1C (centres undefined) was run?
The Potency was inconclusive: 31.6 µM [activator, single point].

With C=CCNc1oc(/C=C/c2ccccc2)nc1C#N as the molecule, how does the Potency read?
Its Potency is inconclusive: 31.6 µM [inhibitor, single point].

With O=C(NCc1ccc(F)cc1)C1CCN(C(=O)c2cnn(-c3ccccc3)c2-n2cccc2)CC1 as the molecule, how does the Potency read?
The Potency was inconclusive: 39.8 µM [activator, single point].

How did the max response, negative = inhibition turn out when O=C(Nc1ncc(Cc2cccc(Cl)c2)s1)C1CCCO1 (centres undefined) was run?
The max response, negative = inhibition was inactive: -3.62%.

How did the Potency turn out when Cc1ccc(-n2c(=O)cc(N3CCc4ccccc4C3)[nH]c2=O)cc1 was run?
Its Potency is inconclusive: 39.8 µM [inhibitor, single point].

Which Potency does the source give for Cc1cccc(NC(=O)Cn2nc(N3CCN(c4ccccc4)CC3)ccc2=O)c1C here?
Its Potency is inconclusive: 31.6 µM [activator, single point].

With Cc1ccc(CC(Cc2nc3ccccc3[nH]2)c2nc3ccccc3[nH]2)cc1 (centres undefined) as the molecule, how does the max response, negative = inhibition read?
The max response, negative = inhibition was inactive: 13.4%.

CCC(=O)N1c2ccc(S(=O)(=O)CCC(=O)N3CCn4c3nc3ccccc34)cc2CC1C (centres undefined) was tested. Which Potency did it give?
Its Potency is inconclusive: 39.8 µM [activator, single point].

CCC1CCC(C(=O)NC(C(=O)Nc2ccc3c(c2)OCCO3)C(C)C)CC1 (centres undefined) was tested. Which Potency did it give?
The Potency was inconclusive: 39.8 µM [inhibitor, single point].

For CCOC(=O)c1c(-c2cccs2)csc1NC(=O)c1ccco1, which Potency is on record?
The Potency was inconclusive: 20 µM [inhibitor, single point].

For Cc1cc(C)c2c(n1)sc1c(=O)n(Cc3ccccc3Cl)nnc12, which Potency is on record?
The Potency was inconclusive: 25.1 µM [activator, single point].

With Cc1ccccc1NC(=O)CSc1nc2ccc(NC(=O)COc3ccccc3F)cc2s1 as the molecule, how does the Potency read?
Its Potency is inconclusive: 39.8 µM [inhibitor, single point].

How did the Potency turn out when COC(=O)c1c(NC(=O)CSc2nnc(-c3ccco3)n2C)sc(C)c1C was run?
The Potency was inconclusive: 39.8 µM [activator, single point].

How did the Potency turn out when COc1cc(C(=O)Nc2ccc(-c3cc(C(F)(F)F)nn3-c3ccccc3)cc2)cc(OC)c1OC was run?
Its Potency is inconclusive: 10 µM [activator, partial curve].

For COCCNC(=O)Cn1c(=O)n(Cc2ccc(C(=O)NCc3ccco3)cc2)c(=O)c2ccccc21, which Potency is on record?
The Potency was inconclusive: 39.8 µM [activator, single point].

COc1ccc(C(=O)N/N=C/c2ccc(OC)c(CN3CCCc4ccccc43)c2)cc1 was tested. Which Potency did it give?
Its Potency is active: 15.8 µM.

How did the max response, negative = inhibition turn out when Cc1ccc(NC(=O)CSc2ncc3c(n2)-c2ccccc2N(C)S3(=O)=O)c(Cl)c1 was run?
The max response, negative = inhibition was inactive: -4.01%.

With COc1ccc(CN(C)c2ccc(-c3nc(C)no3)cc2[N+](=O)[O-])cc1 as the molecule, how does the max response, negative = inhibition read?
The max response, negative = inhibition was inactive: -5.58%.

Which Potency does the source give for CCN(CCCNC(=O)CSc1cc(=O)n(C)c2cc(Cl)ccc12)c1ccccc1 here?
Its Potency is inconclusive: 39.8 µM [activator, single point].

CCOC(=O)c1c(NC(=O)C2CCCN(S(=O)(=O)c3ccccc3)C2)sc2c1CCCC2 (centres undefined) was tested. Which Potency did it give?
Its Potency is inconclusive: 31.6 µM [inhibitor, single point].

For CCCOC(=O)NC(CC)COC(=O)Nc1cccc(C)c1C (centres undefined), which Potency is on record?
The Potency was inconclusive: 0.199 µM [inhibitor, single point].

For CCc1ccc(OCC(=O)Nc2ccc(-c3nc4ccccc4o3)c(O)c2)cc1, which Potency is on record?
Its Potency is inconclusive: 10 µM [inhibitor, single point].

CC12C=C(/C=C/c3ccc(Br)cc3)C(C)(C1)[C@H](c1ccc(Br)cc1)CC2=O (some centres undefined) was tested. Which Potency did it give?
The Potency was inconclusive: 31.6 µM [inhibitor, single point].

For COCCN(CCOC)c1nc(C)nc2c1nc(-c1ccccc1)n2CCN(C)C, which max response, negative = inhibition is on record?
The max response, negative = inhibition was inactive: 1.6%.

With CC(C)OCCCNC(=O)CCC(=O)NNc1nc2ccccc2c2nc(-c3ccccc3)nn12 as the molecule, how does the Potency read?
Its Potency is inconclusive: 39.8 µM [activator, single point].

Which Potency does the source give for COc1cc(N2CCCC2)c(OC)cc1/C=C1/NC(=S)NC1=O here?
The Potency was inconclusive: 20 µM [inhibitor, partial curve].

For CCN(CC)C(=O)c1sc2c(c1C)c(=O)n(-c1ccc(OC)cc1OC)c(=O)n2Cc1cc(C)ccc1C, which Potency is on record?
Its Potency is inconclusive: 25.1 µM [activator, single point].

With CC(=O)N1c2ccc(S(=O)(=O)NCc3ccc(Cl)cc3)cc2CC1C (centres undefined) as the molecule, how does the max response, negative = inhibition read?
Its max response, negative = inhibition is inactive: 5.46%.

For CC1(C)Cc2c(C#N)c(N3CCCC3)nc(-c3ccco3)c2CO1, which Potency is on record?
The Potency was inconclusive: 39.8 µM [activator, single point].

Cc1nn(CCC(=O)N2CCN(c3ccccc3F)CC2)c(C)c1S(=O)(=O)N1CCCC1 was tested. Which Potency did it give?
The Potency was inconclusive: 39.8 µM [activator, single point].

With COc1cccc(-c2nnc(NC(=O)c3ccc(S(=O)(=O)N4CC(C)OC(C)C4)cc3)o2)c1 (centres undefined) as the molecule, how does the Potency read?
The Potency was inconclusive: 25.1 µM [activator, partial curve].

For COc1cc(-c2nc3n(n2)C(c2ccc(F)cc2)C2=C(CCCC2=O)N3)cc(OC)c1OC (centres undefined), which Potency is on record?
The Potency was inconclusive: 39.8 µM [activator, single point].

With CC(=O)N1CCCc2cc(S(=O)(=O)N3CCC(C(=O)NCc4ccccc4Cl)CC3)ccc21 as the molecule, how does the max response, negative = inhibition read?
The max response, negative = inhibition was inactive: 2.52%.

With CCCN(CCC)C(=O)Cn1c2ccccc2c2nc(=O)cc(C)n21 as the molecule, how does the Potency read?
The Potency was inconclusive: 7.94 µM [inhibitor, single point].

How did the Potency turn out when CCOC(=O)C1=C(c2cccc(Oc3ccccc3)c2)NC(=S)NC1C (centres undefined) was run?
The Potency was inconclusive: 5.01 µM [inhibitor, partial curve].

For O=C(Nc1ccc(Cl)c(S(=O)(=O)Nc2ccccc2Cl)c1)c1cccs1, which max response, negative = inhibition is on record?
The max response, negative = inhibition was inactive: -24%.

CCCC12CN3CC(C)(CN(C1)C3c1cn(CC)c3ccccc13)C2=O (centres undefined) was tested. Which max response, negative = inhibition did it give?
Its max response, negative = inhibition is inactive: 12.1%.

For CC(C)(C)NCC(O)COc1nsnc1N1CCOCC1 (centres undefined), which max response, negative = inhibition is on record?
Its max response, negative = inhibition is inactive: -5.65%.

O=C(O)COc1ccc(/C=N/n2c(COc3ccccc3)nc3ccccc3c2=O)cc1 was tested. Which Potency did it give?
Its Potency is inconclusive: 39.8 µM [activator, single point].

Which max response, negative = inhibition does the source give for CCC1CN(C(=O)N2CCC(C(=O)NCCCc3ccccc3)CC2)c2ccccc2O1 (centres undefined) here?
Its max response, negative = inhibition is inactive: 9.56%.

Which Potency does the source give for COc1cc(NC(=O)Cn2nc(C(F)(F)F)c3c2CCCC3)cc(OC)c1OC here?
Its Potency is inconclusive: 39.8 µM [activator, single point].

For O=C1C=CC2=C3c4cc(O)c(O)cc4CC3(O)COC2=C1O (centres undefined), which Potency is on record?
Its Potency is inconclusive: 39.8 µM [activator, single point] and inconclusive: 20 µM [activator, single point].
